These results are taken from patent US20170173112A1 (Daiichi Sankyo, published 2017).

To fix the notation:
B1: lipocalin mutein SEQ ID NO: 14 (designed binder)
chain: ASDEEIQDVSGTWYLKAMTVDFSRGDAIWTSVTPMTLTTLEGGNLEAKVTMMYAGRSQEVKAVLEKTDEPGKYTAMGGSHVAYITRSHVKDHYIFYSEGPHQGAPVPGVWLVGRDPKNNLEALEDFEKAAGARGLSTESILIPRQSETSSPGSAWSHPQFEK
notes: human tear lipocalin mutein
B2: lipocalin mutein SEQ ID NO: 18 (designed binder)
chain: ASDEEIQDVSGTWYLKAMTVDFSRGDAIWTSVTPMTLTALEGGGLEAKVTMMYAGRSQEVKVVLEKTDEPGKYTAMGGSHGAYITRSHVKDHYIFYSEGPYRGAPVPGVWLVGRDPKNNLEALEDFEKAAGARGLSTESILIPRQSETSSPGSAWSHPQFEK
notes: human tear lipocalin mutein
B3: lipocalin mutein SEQ ID NO: 16 (designed binder)
chain: ASDEEIQDVSGTWYLKAMTVDFSRGDAIWTSVTPMTLTTLEGGNLEAKVTMMYAGRSQEVKAVLEKTDEPGKYTTMGGSHVAYIIRSHVKDHYIFYSEGPYQGAPVPGVWLVGRDPKNNLEALEDFEKAAGARGLSTESILIPRQSETSSPGSAWSHPQFEK
notes: human tear lipocalin mutein
B4: lipocalin mutein SEQ ID NO: 19 (designed binder)
chain: ASDEEIQDVSGTWYLKAMTVDFSRGDAIWTSVTPMTLTTLEGGNMEAKVTMMYAGRSQEVKAVLEKTDEPGKYTAMGGSHVAYIIRSHVKDHYIFYSEGLYQGAPVPGVWLVGRDPKNNLEALEDFEKAAGARGLSTESILIPRQSETSSPGSAWSHPQFEK
notes: human tear lipocalin mutein
B5: lipocalin mutein SEQ ID NO: 15 (designed binder)
chain: ASDEEIQDVSGTWYLKAMTVDFSRGDAIWTSVTPMTLTILEGGNLEAKVTMMYAGRSQGVKVVLEKTDEPGKYTAMGGSQVAYIIRSHVKDHYIFYPEGPYQGAPVPGVWLVGRDPKNNLEALEDFEKAAGARGLSTESILIPRQSETSSPGSAWSHPQFEK
notes: human tear lipocalin mutein
B6: lipocalin mutein SEQ ID NO: 17 (designed binder)
chain: ASDEEIQDVSGTWYLKAMTVDFSRGDAIWTSVTPMTLTTLEGGNLEAKVTMMYAGRSQEVKAVLEKTDEPGKYTASGGSHVAYIIRSHVKDHYIFYSEGPHQGAPVPGVWLVGRDPKNNLEALEDFEKAAGARGLSTESILIPRQSETSSPGSAWSHPQFEK
notes: human tear lipocalin mutein
B7: lipocalin mutein SEQ ID NO: 21 (designed binder)
chain: ASDEEIQDVSGTWYLKAMTVDFSRGDAIWTSVTPMTLTTLEGGNLEAKVTMMYAGRSQEVKAVLEKTDEPGKYTAMGGSHVAYILRSHVKDHYIFYSEGPHQGAPVPGVWLVGRDPKNNLEALEDFEKAAGARGLSTESILIPRQSETSSPGSAWSHPQFEK
notes: human tear lipocalin mutein
B8: lipocalin mutein SEQ ID NO: 24 (designed binder)
chain: ASDEEIQDVSGTWYLKAMTVDRFKIASWPRSVTPMTLTTLEGGNLEAKVTMNWWGRSQEVKAVLEKTDEPGKYTAQGGSHVEYIIRSHVKDHYIFYSEGNLQGEPVPGVWLVGRDPKNNLEALEDFEKAAGARGLSTESILIPRQSETSSPGSAWSHPQFEK
notes: human tear lipocalin mutein
B9: lipocalin mutein SEQ ID NO: 23 (designed binder)
chain: ASDEEIQDVSGTWYLKAMTVDRFKIASWPRSVTPMTLTTLGGGNLEAKVTMNWWGRSQEVKAVLEKTDEPGKYTAQGGSHVEHIIRSHVKDHYIFYSKGNLQGEPVPGVWLVGRDPKNNLEALEDFEKAAGARGLSTESILIPRQSETSSPGSAWSHPQFEK
notes: human tear lipocalin mutein

The experiment addresses T1, human PCSK9 (SEQ ID NO: 34) containing a C-terminal FLAG tag (human, UniProt Q8NBP7 31-152; Q8NBP7 153-692).
T1 construct: Secreted from HEK293F cells; also called hPCSK9; hPCSK9 wt; not shown: C-terminal FLAG tag
The experiment can be described thus: SPR (Biacore T200), hPCSK9-Bio captured, 1:1 model.
As for B1, the Kd (as a rule, a measure of binding affinity in units of concentration) is 0.41 nM; the off-rate constant (koff) (usually the first-order rate constant of dissociation) was found to be 0.000105 s⁻¹; the kon – broadly, a measure of how fast the partners come together – turned out to be 256000 M⁻¹ s⁻¹.

Molecule B2 had a Kd of 0.35 nM, a koff of 0.000111 s⁻¹ and a kon of 313000 M⁻¹ s⁻¹.

Turning to B3, binding was put at a Kd of 0.51 nM, the koff amounted to 0.000129 s⁻¹ and the kon worked out at 255000 M⁻¹ s⁻¹.

For the molecule B4, the Kd came out at 0.53 nM, the koff amounted to 0.000132 s⁻¹ and the kon amounted to 247000 M⁻¹ s⁻¹.

For the molecule B5, the Kd came out at 0.38 nM, the koff came to 0.000107 s⁻¹ and the on-rate constant (kon) came to 278000 M⁻¹ s⁻¹.

In the case of B6, binding was characterised by a dissociation constant (Kd) of 0.45 nM, the koff is 0.000111 s⁻¹ and the on-rate (kon) came out at 249000 M⁻¹ s⁻¹.

Molecule B7 gave an equilibrium dissociation constant (Kd) of 0.56 nM, a koff of 0.000137 s⁻¹ and a kon of 245000 M⁻¹ s⁻¹.

B8 gave a Kd of 0.31 nM, a koff of 0.000115 s⁻¹ and a kon of 367000 M⁻¹ s⁻¹.

B9: the Kd is 0.21 nM, the koff turned out to be 0.000176 s⁻¹ and the kon is 836000 M⁻¹ s⁻¹.
